Growth inhibition call data for 40 compounds are collected here from the antibiotic and cytotoxicity screens of Wong et al. (2023).

The other results are listed elsewhere or left out.

For the test, the system named is S. aureus RN4220. Kind of test: growth inhibition call (relative growth <= 0.2). The conditions noted are these: 50 µM.
For the compound `C[C@@H]1CCCCO[C@@H](CN(C)Cc2ccncc2)[C@@H](C)CN([C@@H](C)CO)C(=O)c2cc(NC(=O)Nc3cccc4ccccc34)ccc2O1`, the growth inhibition call was “inactive”.
As for `CO[C@H]1CN(C)C(=O)c2cc(NS(=O)(=O)CC(F)(F)F)ccc2OC[C@H](C)N(Cc2cccnc2)C[C@H]1C`, the growth inhibition call was “inactive”.
Regarding `CC12CCC(=O)C=C1CCC1C2C(O)CC2(C)C1CCC2(O)C(=O)COC(=O)CCC(=O)O` (stereo not given), the growth inhibition call was “inactive”.
On to `C[C@@H]1CN([C@H](C)CO)S(=O)(=O)c2ccc(-c3ccc(C#N)cc3)cc2O[C@H]1CN(C)C(=O)CN(C)C`, for which the growth inhibition call was “inactive”.
The result for `CC(C)CC#Cc1ccc2c(c1)O[C@H](CN(C)C(=O)C1CCOCC1)[C@H](C)CN([C@@H](C)CO)S2(=O)=O` reads “inactive”; that for `C[C@@H]1CN([C@@H](C)CO)C(=O)c2cc(NC(=O)CCCN(C)C)ccc2O[C@@H]1CN(C)C(=O)NC1CCCCC1`, “inactive”.
As to `O=C(C[C@H]1C=C[C@H](NS(=O)(=O)c2ccc(F)cc2)[C@@H](CO)O1)NCc1ccc(Cl)c(Cl)c1`, the growth inhibition call is “inactive”.
With `C[C@@H]1CN([C@H](C)CO)C(=O)c2cc(C#CCN(C)C)cnc2O[C@@H]1CN(C)Cc1ccc2c(c1)OCO2`, the growth inhibition call was “inactive”.
The same measure for `COc1ccc(NC(=O)Nc2ccc3c(c2)C(=O)N([C@@H](C)CO)C[C@H](C)[C@H](CN(C)C(=O)Nc2ccccc2)OCCCC[C@@H](C)O3)cc1`: “inactive”; for `Cc1ccccc1CCCCN`: “inactive”.
The result for `C[C@@H]1CN([C@@H](C)CO)C(=O)c2c(c3ccccc3n2C)-c2ccccc2CO[C@@H]1CN(C)C(=O)Nc1cccc(F)c1` reads “inactive”; that for `C[C@@H]1CCCCO[C@H](CN(C)S(=O)(=O)c2ccc(F)cc2)[C@@H](C)CN([C@@H](C)CO)C(=O)c2cc(NS(C)(=O)=O)ccc2O1`, “inactive”.
For the compound `COc1ccc(CN(C)C[C@@H]2OCCCC[C@H](C)Oc3ccc(NS(=O)(=O)c4ccc(F)cc4)cc3C(=O)N([C@@H](C)CO)C[C@@H]2C)cc1`, the growth inhibition call was “inactive”.
On to `Cc1ccc(S(=O)(=O)Nc2ccc3c(c2)C(=O)N([C@H](C)CO)C[C@@H](C)[C@H](CN(C)Cc2ccc4c(c2)OCO4)OCCCC[C@H](C)O3)cc1`, for which the growth inhibition call is “inactive”.
With `C[C@@H]1CN([C@H](C)CO)C(=O)c2cc(NC(=O)CCCN(C)C)ccc2O[C@H]1CN(C)Cc1ccccc1`, the growth inhibition call is “inactive”.
The same measure for `CCCCCCCCCCCCCCCCOCCCOP(=O)(O)CO[C@H](CO)Cn1ccc(N)nc1=O`: “inactive”.
With `COCCCOc1cc(CC(CC(N)C(O)CC(C(=O)NCC(C)(C)C(N)=O)C(C)C)C(C)C)ccc1OC.O=C(O)C=CC(=O)O` (stereo not given), the growth inhibition call is “inactive”.
With `C[C@@H]1CN([C@H](C)CO)C(=O)Cc2cc(NS(=O)(=O)c3cccs3)ccc2O[C@@H]1CN(C)C(=O)Nc1cccc2ccccc12`, the growth inhibition call was “inactive”.
`CCOc1nn(CC)cc1C(=O)O`: the growth inhibition call is “inactive”.
On to `COc1ccc(S(=O)(=O)Nc2ccc3c(c2)C(=O)N([C@H](C)CO)C[C@@H](C)[C@@H](CN(C)C(=O)Nc2cccc4ccccc24)O3)cc1`, for which the growth inhibition call was “inactive”.
As to `COc1ccccc1-c1ccc2c(c1)O[C@@H](CN(C)S(=O)(=O)c1ccccc1)[C@@H](C)CN([C@@H](C)CO)S2(=O)=O`, the growth inhibition call is “inactive”.
Regarding `C[C@@H]1CN([C@@H](C)CO)C(=O)Cc2cc(NS(C)(=O)=O)ccc2O[C@H]1CN(C)C(=O)Nc1ccc(C(F)(F)F)cc1`, the growth inhibition call is “inactive”.
Regarding `CNCCCN1c2ccccc2CCc2ccccc21.Cl`, the growth inhibition call is “inactive”.
With `C[C@@H]1CN([C@H](C)CO)C(=O)c2cccc(NS(=O)(=O)c3cn(C)cn3)c2O[C@H]1CN(C)C(=O)NC1CCCCC1`, the growth inhibition call was “inactive”.
The same measure for `C[C@@H]1CCCCO[C@@H](CN(C)S(=O)(=O)c2ccc(Cl)cc2)[C@@H](C)CN([C@@H](C)CO)C(=O)c2cc(NC(=O)Nc3cccc4ccccc34)ccc2O1`: “inactive”; for `COc1cccc(S(=O)(=O)Nc2ccc3c(c2)OC[C@H](C)N(C(=O)Cc2cccnc2)C[C@@H](C)[C@@H](OC)CN(C)C3=O)c1`: “inactive”; for `COCCNC(=O)C[C@@H]1C[C@H]2c3cc(NC(=O)CN(C)C)ccc3O[C@H]2[C@H](CO)O1`: “inactive”.
With `C[C@@H]1CN([C@H](C)CO)C(=O)c2cc(C#Cc3ccccc3F)cnc2O[C@@H]1CN(C)S(=O)(=O)c1ccccc1`, the growth inhibition call was “inactive”.
The same measure for `C[C@H]1CN([C@@H](C)CO)C(=O)c2cc(NC(=O)Nc3ccc(C(F)(F)F)cc3)ccc2O[C@H]1CN(C)Cc1ccc(-c2ccccc2)cc1`: “inactive”.
The same measure for `C[C@@H]1CN([C@H](C)CO)S(=O)(=O)c2ccc(Br)cc2O[C@@H]1CN(C)C(=O)NC1CCCC1`: “inactive”.
As to `C[C@H]1CN([C@@H](C)CO)C(=O)c2c(c3ccccc3n2C)-c2ccccc2CO[C@@H]1CN(C)Cc1ccccc1C(F)(F)F`, the growth inhibition call is “inactive”.
Take `C[C@@H]1CCCCO[C@@H](CN(C)C(=O)Nc2ccc3c(c2)OCO3)[C@@H](C)CN([C@H](C)CO)C(=O)c2cc(NC(=O)CCCCCC(=O)Nc3ccccc3N)ccc2O1`: the growth inhibition call is “inactive”.
The same measure for `C[C@@H]1CN([C@H](C)CO)C(=O)c2ccccc2-c2ccccc2CO[C@@H]1CN(C)Cc1ccc(C(F)(F)F)cc1`: “inactive”.
The same measure for `COc1ccc2c3c([nH]c2c1)[C@H](CO)N(C[C@]13CCN(CC1)C(=O)c1ccccc1F)C(=O)Nc1ccccc1F`: “inactive”; for `O=C1O[C@H](c2ccccc2)[C@H](c2ccccc2)N2[C@H]1[C@@H](C(=O)NC[C@@H](O)c1ccccc1)[C@]1(C(=O)Nc3ccc(C#CC4=CCCCC4)cc31)[C@H]2c1ccccc1OCCO`: “inactive”.
For `CN(C)c1nc2ncnc(N)c2[nH]1`, the growth inhibition call is “inactive”.
For the compound `CO[C@H]1CN(C)C(=O)c2cc(NS(C)(=O)=O)ccc2OC[C@H](C)N(C(=O)C2CCOCC2)C[C@@H]1C`, the growth inhibition call was “inactive”.
In the case of `C[C@H]1CN([C@@H](C)CO)C(=O)Cc2cc(NS(C)(=O)=O)ccc2O[C@H]1CN(C)Cc1ccc(C(=O)Nc2ccccc2N)cc1`, the growth inhibition call is “inactive”.
In the case of `C[C@H]1CCCCO[C@H](CN(C)S(=O)(=O)c2ccc(F)cc2)[C@@H](C)CN([C@@H](C)CO)C(=O)c2cc(NC(=O)CCC(F)(F)F)ccc2O1`, the growth inhibition call was “inactive”.
For `COc1ccc(CC(N)C(=O)NC2C(CO)OC(n3cnc4c(N(C)C)ncnc43)C2O)cc1.Cl.Cl` (stereo not given), the growth inhibition call is “inactive”.
